In the supplement of paper PMC10126150 one finds switch fluorescence ratio data, which are given here for 67 sequences.

The data set deals with ATP. Put plainly: switch fluorescence ratio, 500 uM ATP over buffer (Cy3 cluster intensity, sum of 5 cycles each) (fold (ratio)); higher = stronger signal-on switching upon ATP binding; sequences stand for … in TCGTCGGCAGCGTCAGATGTGTATAAGAGACAGTTTTTTTTTTTTTTTTTTTTTTTTT…TC. As to conditions: aptamer strand: ATP DNA aptamer (quencher-CACCTGGGGGAGTATTGCGGAGGAAGG + anchor), 100 nM annealed; ATP concentration: 500 uM; one replicate. An outline of the steps:
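Cy3-labelled switching-strand clusters on a modified Illumina MiSeq flow-cell were annealed to 100 nM quencher-labelled ATP aptamer and imaged first in selection buffer, then after 15 min with 500 uM ATP at 22 °C. NaOH stripping and re-annealing separated each of five buffer/ATP cycles, and clusters outside 100-1000 RFU were excluded. The fluorescence ratio sums target-cycle Cy3 intensity over buffer-cycle Cy3 intensity per cluster and averages it per switch-domain sequence.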

Sequences with one replicate were seen in a single cluster, so their values are uncertain.
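Note: ATP exposure 15 min at 22 °C before imaging.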

Take GTACTATTCG: the switch fluorescence ratio stood at 0.972. Consider ACTTAAGTGC, for which the switch fluorescence ratio is 1. The value for GCTGACCCGG was 1.03; that for CCACAGCTTT was 2.36; that for TTCTTACGTT was 1.01. With TCCACGGT, the switch fluorescence ratio turned out to be 1.07. Then TCTAGCACAT, with 1.18; and GAACGATGAT, with 1.07; and ATAGAGTGTG, with 0.979.

For GAACTGGGAC, the switch fluorescence ratio is 1.02. The value for CCTTCGGTCT was 1.15. Then GGAAACAGAT, with 1; and CCTTTCAATG, with 1.39. As to TAGAGACGAA, the switch fluorescence ratio was found to be 1. Then AGGCATCTCA, with 0.997. The value for CCACTACCT was 1.38. Then CATTAGCGGC, with 1.05. Take AGCGAAGCGT: the switch fluorescence ratio came out at 1.06. The value for GTGGCCAGTT was 1.03; that for TTATTGACCA was 1.04; that for TAGTTCCGTC was 1.02. The value for AGAGAACGTG was 0.977; that for GTCGAAAGTG was 0.929; that for GAAAGATAAC was 0.994. Then AGTTGGCGGT, with 0.88; and GATCGTCTGG, with 0.974; and CTCTCCATTC, with 1.24. Take GAAACCAGCG: the switch fluorescence ratio worked out at 1.16. The value for GTAAAAAACT was 1.04. Consider TCGGGCCTTT, for which the switch fluorescence ratio is 1.01.

As for AGCTCAACGT, the switch fluorescence ratio worked out at 0.981.

Regarding AAGCTGCTGT, the switch fluorescence ratio was 1.

Regarding ACGTGTACAC, the switch fluorescence ratio was 1.05. The value for GACGTGGGCT was 1.05; that for GAATCGATCT was 0.976; that for TCAATGCTCG was 1.06. Then CAACCGTCTT, with 1.09; and GATCTCATC, with 0.992; and CGTTCGTTCA, with 1.02.

Take TTTAGTATAG: the switch fluorescence ratio is 0.995.

With TATCAACGGC, the switch fluorescence ratio came to 0.967.

As for TATAGGAGTA, the switch fluorescence ratio is 0.971.

As for CGATTGCTCC, the switch fluorescence ratio was 1.24.

CTATCACCAA: the switch fluorescence ratio was determined as 1.05. Take CTGTCCCAGC: the switch fluorescence ratio turned out to be 1.07. The value for GACGGAACTC was 1.51. Then GTTTGAAATA, with 0.986; and ACTTCCGGCT, with 1.08; and AGGCACTTGC, with 1. The value for ACGTCGCGG was 0.952. Take GGGGAATTC: the switch fluorescence ratio is 1. The value for GCAATGCTA was 1.82. Then TCGACGAGGA, with 1.15; and ACTAAGTGAG, with 1.01. Then TTTAGAACTA, with 0.953; and TATGAGGCCT, with 0.997. Regarding ACACGCTACG, the switch fluorescence ratio is 1.53. On to GGCGGACTAC, for which the switch fluorescence ratio is 1.24. The value for ACTATATCAG was 1.08; that for TAGAGGCATG was 1.08; that for TAAAGCGGTT was 1. Then GTTTGAGAG, with 1.04; and GCCGCTGTGT, with 1.15. Turning to AGACGTGCC, the switch fluorescence ratio worked out at 0.977. Consider GGCTAAAGAC, for which the switch fluorescence ratio came to 1.05. Then TGTAGGACGA, with 0.982.

With GGACGTTGGG, the switch fluorescence ratio worked out at 0.968.
